Reference: PubChem BioAssay AID504832 (National Center for Advancing Translational Sciences (NCATS), 2011)
Out of some 310,000 compounds screened, about 18,000 (5.8%) were called active. Inconclusive means that the source gave no clear call. Such entries were picked first, then a sample of the others. Calls follow the shape of the dose curve; as a rule, active = well fitted inhibition curve with a large enough effect; inconclusive = small, poorly fitted or top-dose-only effect, or another doubt; inactive = no such curve, though single readings can be large or run the other way. No potency is given beside an inconclusive call; the fits are too rough.

Assay: Primary qHTS for delayed death inhibitors of the malarial parasite plastid, 48 hour incubation
Conditions: P. falciparum luciferase growth in erythrocytes; series mostly up to 28.7 µM
Procedure, shortened: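 Here the parasites carry a stable luciferase gene and grow inside erythrocytes in Albumax-based RPMI medium with compound for one erythrocytic cycle. Activity is scored as loss of luminescent signal.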
Potency is read from the fitted curve at half-maximal effect; tags tell the direction and shape of the fitted curve.

SMILES | Potency
N#Cc1c(SCC(N)=O)nsc1SCc1ccc(Cl)cc1 | inconclusive [inhibitor, single point]
COc1ccccc1NC(=O)C1CCCN(c2nc(C)cc(C)n2)C1 (centres undefined) | inconclusive [inhibitor, single point]
CCCC12CN(C(=O)c3ccc([N+](=O)[O-])cc3)CC(C)(CN(C(=O)c3ccc([N+](=O)[O-])cc3)C1)C2=O | active: 11.7 µM
CN(C)CC(C)(C)CNC(C(=O)Nc1ccc(Cl)cc1C(F)(F)F)c1ccccc1 (centres undefined) | inconclusive [inhibitor, full curve, poor fit]
CCOC(=O)C1CCCN(C(=O)CN2C(=O)/C(=C/c3ccc(OC)cc3)Oc3ccccc32)C1 (centres undefined) | inconclusive [inhibitor, single point]
COc1ccc(OC)c(/C=C/C(=O)Oc2ccc(C(C)=O)cc2)c1 | inactive
CCOC(=O)N1CCN(CC(O)COc2ccc(CC)cc2)CC1 (centres undefined) | inactive
CC(=NCCCN1CCCCC1)c1c(O)n(Cc2ccccc2)c(=O)[nH]c1=O | inconclusive [inhibitor, partial curve]
O=C(N/N=C/c1cccc(Oc2ccccc2)c1)c1cccc(Br)c1 | inconclusive [inhibitor, single point]
CCn1c(C)nc2cc(C(=O)N/N=C/c3ccc(N4CCOCC4)cc3)ccc21 | inconclusive [inhibitor, single point]
CC(C)NC(=S)N/N=C/c1cc(Br)ccc1O | active: 2.08 µM
Cc1ccc(-c2c(C(=O)N/N=C/C3CCCCC3)nnn2-c2nonc2N)cc1 | inconclusive [inhibitor, single point]
COc1ccc2c(c1)C(=C(C#N)C#N)C(=O)N2CCc1ccccc1 | inconclusive [inhibitor, single point]
Cc1cccc(-c2ccc3ncnc(NCc4cccc(F)c4)c3c2)c1 | active: 0.0415 µM
Cc1ccc(NC(=O)CC2SCCNC2=O)cc1[N+](=O)[O-] (centres undefined) | inactive
Cc1ccc(C)c(NC(=O)CSc2nc(N)c(NC(=O)c3cccs3)c(=O)[nH]2)c1 | inactive
COc1ccccc1NC(=O)Nc1nc(CC(=O)NCc2c(F)cccc2F)cs1 | inconclusive [inhibitor, partial curve]
Cc1ccc(C)c(C(C)NC(=S)NC2CCCCC2)c1 (centres undefined) | active: 13.1 µM
C=CCC1(CC=C)CCCN1C(=O)c1cc(COc2ccc(-n3cncn3)cc2)on1 | inconclusive [inhibitor, partial curve, poor fit]
O=C(NCc1cccs1)c1cc2c(s1)-c1ccccc1OC2 | inactive
COc1ccc(C(=O)c2sc(Nc3ccccc3)nc2N)cc1OC | inconclusive [inhibitor, single point]
CC(C)OCCCNc1ncc2c(n1)CC(c1ccccc1)CC2=O (centres undefined) | inconclusive [inhibitor, partial curve]
Cn1ccnc1SCC(=O)Nc1ccc2c(c1)OCO2 | inactive

SMILES | Potency
COc1ccccc1NC(=O)c1ccccc1-c1nc(-c2ccccc2OC)no1 | inconclusive [inhibitor, single point]
O=Cc1c(N2CCN(c3cccc(Cl)c3)CC2)nc2ccccn2c1=O | inconclusive [inhibitor, partial curve]
C=CCN1C(=O)NC(c2ccc(OC)cc2)(C(F)(F)F)S/C1=C(\C#N)c1nnc(N2CCOCC2)n1-c1ccccc1 (centres undefined) | inactive
O=C(c1cc2nc(-c3ccco3)cc(C(F)(F)F)n2n1)N1CCCCCC1 | inconclusive [inhibitor, single point]
CNS(=O)(=O)c1ccc2c(c1)NC(=O)C1CCCN21 (centres undefined) | inactive
O=C(Cc1cccs1)N/N=C\c1ccc(O)cc1 | inactive
COc1ccc(-c2nc(CCNC(=O)c3ccco3)cs2)cc1OC | inconclusive [inhibitor, single point]
COc1ccc(CC(=O)NCc2nnc(SCC(=O)Nc3nccs3)n2-c2ccccc2)cc1 | inconclusive [inhibitor, single point]
Cc1ccc[n+](CC(=O)Nc2cc(C(F)(F)F)ccc2N2CCOCC2)c1 | active: 2.08 µM
CCN(Cc1ccccc1)C(=O)COC(=O)CNC(=O)c1ccc(C)s1 | inactive
COCCn1ccc2c(OCC(=O)Nc3cc(OC)ccc3OC)cccc2c1=O | active: 11.7 µM
Cc1ccc2nc(-c3ccc(NC(=O)CN4C(=O)c5ccccc5C4=O)cc3)sc2c1 | inactive
O=C(NCc1ccco1)c1nc(-c2ccc(F)cc2)no1 | inactive
CC(C)[C@H](NC(=O)[C@@H]1Cc2ccccc2CN1)C(=O)Nc1ccc2c(c1)OCO2 | inconclusive [inhibitor, single point]
c1ccc(CCNC2=NCCCS2)cc1 | inconclusive [inhibitor, single point]
CS(=O)(=O)c1ccc2nc(NC(=O)Nc3ccc(Cl)cc3)sc2c1 | inconclusive [inhibitor, full curve]
Cc1c(C)n(Cc2ccc(F)cc2)c2ccc(C(=O)NCCCN3CCOCC3)cc12 | active: 9.28 µM
Nc1n[nH]c(=S)n1-c1ccc(Cl)cc1 | inconclusive [inhibitor, full curve, poor fit]
COc1ccccc1NS(=O)(=O)c1cc(NC(=O)C2CCC2)ccc1N1CCCCC1 | inconclusive [inhibitor, single point]
C=CCN1CC(C(=O)N(CCCN(C)C)C(=O)NCC)CC2c3cccc4[nH]cc(c34)CC21 (centres undefined) | active: 19 µM
CN1CCN(c2ccc(S(=O)(=O)N3CCCCC3)cc2NC(=O)COc2ccc([N+](=O)[O-])cc2)CC1 | inconclusive [inhibitor, partial curve]
CCC(C)CCCCNC1=NCCS1 (centres undefined) | inconclusive [inhibitor, full curve]
CN(C)C1(CNC(=O)c2cccc(S(=O)(=O)Nc3ccc(Br)cc3)c2)CCCCC1 | inconclusive [inhibitor, single point]

SMILES | Potency
CC(C)Nc1nnc(SC(C)C(=O)NCc2ccc3c(c2)OCO3)s1 (centres undefined) | inconclusive [inhibitor, partial curve, poor fit]
COc1ccc(C(=O)/C=C/Nc2ccc(S(=O)(=O)Nc3cccc(C(C)=O)c3)cc2)cc1 | inconclusive [inhibitor, partial curve]
O=C(CN1CCN(c2ccccc2)CC1)Nc1ccccc1C(F)(F)F | inactive
CCC(=O)N1CCc2cc(Br)cc(S(=O)(=O)NCCCN(CC)Cc3ccccc3)c21 | inconclusive [inhibitor, single point]
CCCOc1ccc(/C(O)=C2/C(=O)C(=O)N(CCCN3CCOCC3)C2c2ccncc2)cc1 (centres undefined) | inconclusive [inhibitor, partial curve, poor fit]
COc1ccc(-c2cc([C@H]3[C@@H]4C=CCC[C@@]4(C)C(=O)N3Cc3ccccc3)ccc2F)cc1OC | inconclusive [inhibitor, single point]
O=C(CN1CCN(S(=O)(=O)c2cccc(F)c2)CC1)Nc1ccnn1C1CCCC1 | inconclusive [inhibitor, single point]
COc1ccc(C(C(=O)NCc2ccccc2)N(C(=O)c2snc(C(N)=O)c2N)c2ccccc2OC)cc1 (centres undefined) | active: 5.22 µM
CN(C)c1ccc(/C=N/NC(=S)NCc2ccccc2)cc1 | inconclusive [inhibitor, single point]
Cc1ccc(NC(=O)c2cc3cc(OC(F)(F)F)ccc3[nH]2)cc1 | inconclusive [inhibitor, partial curve, poor fit]
CCc1ccc(C(O)(c2ccccc2OC)C(CN2CCOCC2)c2ccccc2)cc1 (centres undefined) | inconclusive [inhibitor, partial curve, poor fit]
Cc1ccc(C(=O)CCC(=O)N2CCN(c3ccc(F)cc3)CC2)cc1 | inactive
CCOC(=O)c1ccc(NC(=O)C(=O)NCC2(c3ccc(OC)cc3)CCOCC2)cc1 | inconclusive [inhibitor, single point]
CCOc1cc(N2CCOCC2)c(OCC)cc1NC(=O)CN1CCSC1=O | inactive
C/C(=N\NC(=O)c1ccccc1F)c1ccccn1 | inactive
CCOC(=O)C(C)Sc1nc2c(cnn2-c2ccc(C)cc2)c(=O)[nH]1 (centres undefined) | inactive
Cc1ccc(C(=O)NC(=S)N(C)C2CCCCC2)cc1Br | inconclusive [inhibitor, single point]
CS(=O)(=O)c1nc(S(=O)(=O)c2ccc(Cl)cc2)c(N2CCCCC2)s1 | inconclusive [inhibitor, partial curve]
CCC1SC(CC)C(=O)N(CC(=O)Nc2ccc3c(c2)OCO3)C1=O (centres undefined) | inactive
Cc1ccccc1-c1nc(S(=O)(=O)c2ccc(Cl)cc2)c(NCCN2CCOCC2)o1 | inconclusive [inhibitor, single point]
O=c1c2ccccc2nc(/C=C/c2ccco2)n1-c1ccccc1O | inconclusive [inhibitor, single point]
CCCn1c(N2CCN(Cc3ccc(Cl)cc3)CC2)nc2ccccc21 | inconclusive [inhibitor, single point]
CCOC(=O)CNC(=S)N(Cc1ccccc1F)C1CCCCC1 | inconclusive [inhibitor, partial curve, poor fit]
